Measurements: the supplement of paper PMC11417369
The list shows a part of the results.

tested on: PfHDP1 homeodomain (GST-tagged); test: gcPBM binding intensity (ln(normalized median fluorescence intensity)); higher = stronger DNA binding
In short: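 An Agilent 4 × 180k array of primer-extended double-stranded 36-bp intergenic genomic probes, with negative controls, was incubated for 1 h with GST-tagged P. falciparum DNA-binding domains expressed in E. coli. Alexa488 anti-GST antibody detected bound protein, scanned at 488 nm. Binding intensity is the highest Masliner-normalised natural-log median intensity across replicate spots of either probe orientation.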

Point of comparison: “TTAATTATATTATGCACACACAATTGGAAAAAAAAT [CACACA_site1958]”, “gcPBM binding intensity (ln)” value 10.2. Against it:
- TAAAATAATTCGTAACGTACATATGTAATATAATAT [XGTACX_site6126] — lower, 7.16
- TAATATATAAGAAACAAAAAAAAATAAAAATATATA [TGCATGCA_negctrl_site153] — lower, 6.36
- CGCATACACGGACACACACACACATATATATATATA [CACACA_site4520] — lower, 9.19
- GGTATAAAGAAATTTTGTACATATTTCTCCCTTTAA [XGTACX_site1874] — lower, 6.39
- ATAAAATCAACAAATCAGGATGTCACGTAAATATCA [CACACA_negctrl_site1009] — lower, 6.57
- AAATATTGTTTTTTATGTACTTATTTTTATTTATTT [XGTACX_site3481] — lower, 6.68
- ATGAAAAAGTGCTGGATTCTAAAGAAAAAAAAAAAA [CACACA_negctrl_site962] — lower, 5.94
- GAAAAACAAATATATTAACACACAAACATATAAACA [CACACA_site9315] — lower, 6.78
- GTTATATGAACTTATATACACACCATTTTTGTAAAT [CACACA_site695] — lower, 6.69
- AAATCATATTCTTATTTTATTTTTTTTATTTTTTAT [XGTACX_negctrl_site166] — lower, 6.19
- TGTAGATATTTTTGGGGTACTTTATAAAGAACTAGT [XGTACX_site5635] — lower, 6.7
- TTACATATATTGGGGTGTACATATATTTTCCTTCAC [XGTACX_site6224] — lower, 7.35
- AAAAAAAAAAAAAAAAGTACACATAATTGTATATGT [XGTACX_site6339] — lower, 6.58
- AAAAAAAAGAAAAAAACACACAATGGAAAAAATGTA [CACACA_site3675] — lower, 6.51
- TCAACTTGATTTATATGTACACATATAAGTAATTAT [XGTACX_site1798] — lower, 6.47
- ACGTTAGGCTTATTTGCACACTTGTATTAAAATTTT [CACACA_site4854] — lower, 10.1
- AAAAATATGCTTCCATGTACTTAAAAAAAAAATTTA [XGTACX_site3617] — lower, 6.21
- TATACAAACTATGATGCACACATATATATATGTATA [CACACA_site8327] — lower, 8.97
- AAAAAAAATTTTCTTCTGTTGTATTTTTTATACGTT [GTGCAC_negctrl_site477] — lower, 6.45
- GTTTATTTTTTCATTTGTACACATAAATAAATATAT [XGTACX_site7752] — lower, 6.92
- GGTATATATTCTATCACACATATTTCCATGAAAATA [CACACA_site4728] — lower, 6.63
- TATTTAGAAATAAATACACACATACATTTTTGTATA [CACACA_site4557] — lower, 6.33
- TTATACGAAGTACGTACACACACTTATATGTTACTA [CACACA_site4019] — lower, 6.71
